Results from PubChem BioAssay AID652104 (National Center for Advancing Translational Sciences (NCATS), 2013).
Screen size: about 410,000 compounds; about 7,200 (1.8%) were called active. Inconclusive means that the source gave no clear call. Such entries were picked first, then a sample of the others. Calls come from the whole dose curve; as a rule, active = well fitted activation curve with a large enough effect; inconclusive = small, poorly fitted or top-dose-only effect, or another doubt; inactive = no such curve, though single readings can be large or run the other way. Potencies of inconclusive entries are left out as doubtful fits.

Test: qHTS of TDP-43 Inhibitors; note: nearly all actives have a fitted effect of over 50% in size
Settings: TDP-43 expressing yeast growth rescue, BacTiter-Glo, 24 h; series mostly up to 46.1 µM
Procedure, shortened: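 Readout is BacTiter-Glo luminescence of cell growth, so inhibitors register as activators. TDP-43-expressing yeast at OD600=0.02 in galactose medium, after raffinose pregrowth to mid-log, were incubated with compound for 24 hr at 30 deg C.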
Potency is the fitted concentration of half-maximal effect; tags give direction and shape of the fitted curve.

SMILES | Potency
O=C(Nc1cc(F)ccc1F)C1CCCN(c2ncnc3c2nc2n3CCCCC2)C1 (stereo not given) | inconclusive [activator, partial curve]
COc1ccc(OCC(=O)Nc2c3c(nn2C(C)(C)C)CSC3)cc1 | inconclusive [activator, partial curve]
CNC(=S)Nc1cc2oc3ccccc3c2cc1OC | inconclusive [activator, partial curve]
CCn1c(-c2csc(C(C)C)c2)n[nH]c1=S | inconclusive [activator, partial curve]
COc1cc(NC(C)=O)c2ncccc2c1Br | inconclusive [activator, partial curve]
CN(Cc1cc(=O)n2ccsc2n1)c1ccccc1 | inconclusive [activator, partial curve]
Fc1ccc(CNC(=S)Nc2cccc(Cl)c2)cc1 | inconclusive [activator, partial curve]
NNC(=O)c1cc(-c2cccs2)nc2ccccc12 | inactive
CCCn1c(=NC(=O)c2ccco2)c(C(=O)OCC)cc2c(=O)n3ccccc3nc21 | inactive
O=C(COc1ccccc1F)N1CCCc2ccccc21 | inconclusive [activator, single point]
O=C(C[C@H]1C[C@H](C(=O)N2CCOCC2)[C@@]2(CCC3CCCC3)c3[nH]c4cc(-c5ccco5)ccc4c3CCN2C1=O)NCCCn1ccnc1 | inconclusive [activator, single point]
CCOc1ccc(-c2[nH]ncc2-c2ccccc2)c(O)c1 | inconclusive [activator, single point]
O=C(COc1ccc(Br)cc1)N(Cc1nnc(-c2ccccc2Cl)o1)C1CC1 | active: 20 µM
C=CCOC(=O)Nc1nc(CCNC(=O)OCc2ccccc2)c(C(=O)O)s1 | inactive
O=C(CCC(=O)N1CCc2ccccc21)Nc1ccccc1 | inconclusive [activator, partial curve, poor fit]
CN(C)c1ccnc(SCc2ccccc2Cl)c1C#N | inconclusive [activator, single point]
CC(=O)c1cccc(S(=O)(=O)N2CCN(c3ccccc3F)CC2)c1 | inconclusive [activator, full curve]
CC(C)(C)c1ccc(C(=O)NCC(c2cccs2)S(=O)(=O)c2ccc(F)cc2)cc1 (stereo not given) | inconclusive [activator, partial curve]
Cc1ccc(N(CC(=O)NCC(C)c2ccccc2)S(=O)(=O)N(C)C)cc1 (stereo not given) | inactive
Cc1ccccc1C(=O)Nc1nnc(SCc2cc(=O)n3ccccc3n2)s1 | inactive
CCOc1cc(C(=O)Nc2nnc3n2CCS3)cc(OCC)c1OCC | inactive
CCCCC(c1nnnn1Cc1ccco1)N1CCN(c2nc3ccccc3s2)CC1 (stereo not given) | inconclusive [activator, single point]
CCCNC(=O)c1onc(CSc2ccc(F)cc2)c1C(=O)NC(C)C | inconclusive [activator, partial curve, poor fit]
CC1(C(=O)NS(=O)(=O)c2ccc3c(c2)CCO3)CCN1C(=O)C1(c2ccc(Cl)cc2)CC1 (stereo not given) | inconclusive [activator, single point]

SMILES | Potency
COc1cccc(NC(=O)CSc2nnc(-c3cc(C)n(-c4ccccc4)c3C)o2)c1 | inconclusive [activator, single point]
O=C(c1cc(-c2ccccc2)nc2ccccc12)N1CCCc2ccccc21 | inconclusive [activator, single point]
COc1ccc(C2CC(=O)c3cnc(Nc4cc(C)cc(C)c4)nc3C2)cc1 (stereo not given) | inconclusive [activator, single point]
O=C(/C=C/Nc1ccc(F)cc1)c1cccs1 | inconclusive [activator, single point]
CCOC(=O)c1cccc(NC(=O)Cc2ccc(NC(=O)N3CCCCc4ccccc43)cc2)c1 | inactive
CCN(CC(=O)Nc1ccc(OC)cc1)CC(=O)Nc1cccc(C#N)c1 | inactive
COc1ccccc1Cn1c(CNS(=O)(=O)c2ccc(Cl)s2)nc2cccnc21 | inactive
COc1ccc(C(C#N)=Cc2ccc(NC(C)=O)cc2)cc1 | inactive
CC(C)(C)c1ccc(-c2nc(-c3ccncc3)no2)cc1 | inconclusive [activator, partial curve]
COc1ccc2sc(-c3ccccc3OC)c(-c3ccc(O)cc3)c2c1 | inactive
O=C(Nc1ccc(F)cc1F)c1ccc(-c2ccccc2)s1 | inconclusive [activator, full curve, poor fit]
CCOc1cc(-c2nnc(NC(=O)c3ccco3)o2)cc(OCC)c1OCC | inconclusive [activator, partial curve]
COc1ccc2c(c1)C(=O)CC(c1ccccc1F)O2 (stereo not given) | inconclusive [activator, partial curve]
Cc1cc([N+](=O)[O-])ccc1NC(=O)Nc1ccc(F)cc1F | inconclusive [activator, partial curve, poor fit]
Cc1ccc(N2C(=O)C3CCCN3C2=S)c(C)c1 (stereo not given) | inconclusive [activator, partial curve, poor fit]
O=C1c2ccccc2-c2onc3c(Br)cc(NC4CCCCC4)c1c23 | inconclusive [activator, partial curve]
CN1C(C(=O)Nc2ccccn2)=C(O)c2ccccc2S1(=O)=O | inconclusive [activator, single point]
CCCCCn1nc(C(=O)N(CC)c2c(N)n(CCCC)c(=O)[nH]c2=O)c2ccccc2c1=O | inactive
CCOc1ccccc1NC(=O)CSc1n[nH]c(=O)n1-c1ccccc1 | inconclusive [activator, partial curve]
O=c1oc2cc(O)ccc2c2ccccc12 | inconclusive [activator, single point]
CC(C)(C)NC(=O)C12CC3CC(CC(Cl)(C3)C1)C2 | inactive
COc1ccc(C2C=C(c3ccc(C)cc3)Nc3ncnn32)cc1 (stereo not given) | inconclusive [activator, single point]
O=C(c1cnc(N2CCOCC2)c2ccccc12)N1CCN(c2ccc(F)cc2)CC1 | inconclusive [activator, partial curve]
O=C(Nc1nc2ccccc2[nH]1)NC1CCCCC1 | inactive

SMILES | Potency
COc1ccccc1N1CCN(C(=O)c2ccc3c(c2)N(Cc2ccccc2)C(=O)c2ccccc2S3(=O)=O)CC1 | inconclusive [activator, full curve]
O=C1C=C(c2ccc3c(c2)OCO3)C[C@@H](c2ccc(F)cc2)C1 | inconclusive [activator, partial curve]
CC(C)C1C(=O)N(Cc2cn(CCC3OCCO3)nn2)CCS(=O)(=O)N1Cc1ccc(-c2ccc(Cl)c(Cl)c2)cc1 (stereo not given) | inconclusive [activator, partial curve]
CCOC(=O)Cc1csc(NC(=O)CC)n1 | inactive
COc1ccc(-n2nnnc2C2CCN(S(=O)(=O)c3cccc(Cl)c3C)CC2)cc1 | inactive
COc1ccc(-n2cnnc2SCc2cnc(-c3ccccc3)s2)cc1 | active: 20 µM
COC(=O)c1sc(NC(=S)NC(=O)c2ccccc2C)nc1C | inconclusive [activator, full curve]
CC(C)CC(COCc1ccc(Cl)cc1)N1CCN(C(=O)c2ccc(C(F)(F)F)cc2)CCC1=O (stereo not given) | inconclusive [activator, single point]
COc1cc(NC(=O)COC(=O)CNC(=O)c2ccc(C)cc2)c(C)cc1[N+](=O)[O-] | inconclusive [activator, single point]
COCCOC(=O)C1=C(C)NC(C)=C(C(=O)OC(C)C)C1c1cccc([N+](=O)[O-])c1 (stereo not given) | inconclusive [activator, single point]
O=C(Nc1ccccc1)C1Cc2c(-c3ccco3)ccnc2O1 (stereo not given) | active: 25.1 µM
CN(C)c1ccc(-c2nc(-c3ccncc3)no2)cc1[N+](=O)[O-] | inconclusive [activator, partial curve]
O=C1c2ccccc2C(=O)N1CCCSc1nc2ccccc2o1 | inconclusive [activator, partial curve]
COc1cc(OC)cc(C(=O)NCc2ccc3c(c2)CCN3C(=O)c2ccccc2)c1 | inactive
CC(C)C1C(C#N)=C(N)Oc2n[nH]c(-c3cccs3)c21 (stereo not given) | inconclusive [activator, single point]
CC(c1ccccc1)n1c(CO)nc2ccccc21 (stereo not given) | inactive
Cc1cccc(Nc2ncnc3c2cnn3C)c1C | inconclusive [activator, single point]
CCc1ncc(C)nc1CC | inactive
CCN(CC)S(=O)(=O)c1ccc(N2CCOCC2)c(NC(=O)c2cc3ccccc3oc2=O)c1 | inconclusive [activator, partial curve]
Cc1ccc(-n2nnnc2-c2cccs2)cc1[N+](=O)[O-] | inconclusive [activator, single point]
C=CCn1c(COc2cccc(C)c2)nnc1SCn1nnc2ccccc2c1=O | inconclusive [activator, partial curve]
O=C1CC2(CCN(C(=O)c3c(F)cccc3Cl)CC2)Oc2ccccc21 | inconclusive [activator, partial curve]
